Assay results taken from the supplement of paper PMC8728848.
Some of the results follow.

Legend:
Test in all cases: glycan array binding signal (z-score within array); higher = stronger binding
Settings in all cases: glycan notation: IUPAC condensed, linker removed
[1] = molecular target: GlcNAc(b1-3)Gal(b1-4)GlcNAc(b1-3)Gal(b1-4)GlcNAc(b1-3)GalNAc
Outline: (§1)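 The binding signal is a Z-score computed within each array and averaged over linkers. Arrays of the same protein sequence at different concentrations or buffers were also averaged together. Data originate from 3228 arrays in the Consortium for Functional Glycomics database, kept only where the protein sequence was available.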

[2] = molecular target: GlcNAc(b1-3)Gal(b1-4)GlcNAc(b1-3)GalNAc
Outline: as §1

[3] = molecular target: GlcNAc(b1-3)Gal(b1-4)GlcNAc(b1-3)[GlcNAc(b1-3)Gal(b1-4)GlcNAc(b1-3)]GalNAc
Outline: as §1

[4] = molecular target: GlcNAc(b1-3)Gal(b1-4)GlcNAc(b1-6)[Gal(b1-3)]GalNAc
Outline: as §1

[5] = molecular target: GlcNAc(b1-3)Gal(b1-4)GlcNAc(b1-6)[GlcNAc(b1-3)Gal(b1-3)]GalNAc
Outline: as §1

[6] = molecular target: GlcNAc(b1-3)Gal(b1-4)GlcNAc(b1-6)[GlcNAc(b1-3)]Gal(b1-4)GlcNAc
Outline: as §1

GlcNAc(b1-3)GalNAc = molecular target: GlcNAc(b1-3)GalNAc
Outline: as §1

GlcNAc(b1-3)Man = molecular target: GlcNAc(b1-3)Man
Outline: as §1

[7] = molecular target: GlcNAc(b1-3)[GlcNAc(b1-4)][GlcNAc(b1-6)]GlcNAc
Outline: as §1

[8] = molecular target: GlcNAc(b1-3)[GlcNAc(b1-6)]Gal(b1-4)GlcNAc
Outline: as §1

[9] = molecular target: GlcNAc(b1-3)[GlcNAc(b1-6)]GalNAc
Outline: as §1

[10] = molecular target: GlcNAc(b1-4)Gal(b1-4)GlcNAc
Outline: as §1

GlcNAc(b1-4)GlcNAc = molecular target: GlcNAc(b1-4)GlcNAc
Outline: as §1

[11] = molecular target: GlcNAc(b1-4)GlcNAc(b1-4)GlcNAc
Outline: as §1

[12] = molecular target: GlcNAc(b1-4)GlcNAc(b1-4)GlcNAc(b1-4)GlcNAc(b1-4)GlcNAc
Outline: as §1

[13] = molecular target: GlcNAc(b1-4)GlcNAc(b1-4)GlcNAc(b1-4)GlcNAc(b1-4)GlcNAc(b1-4)GlcNAc
Outline: as §1

[14] = molecular target: GlcNAc(b1-4)[GlcNAc(b1-6)]GalNAc
Outline: as §1

[15] = molecular target: GlcNAc(b1-6)Gal(b1-4)GlcNAc
Outline: as §1

GlcNAc(b1-6)GalNAc = molecular target: GlcNAc(b1-6)GalNAc
Outline: as §1

[16] = molecular target: GlcNAc6S(b1-3)Gal(b1-4)GlcNAc
Outline: as §1

Kdn(a2-3)Gal(b1-3)GalNAc = molecular target: Kdn(a2-3)Gal(b1-3)GalNAc
Outline: as §1

Kdn(a2-3)Gal(b1-3)GlcNAc = molecular target: Kdn(a2-3)Gal(b1-3)GlcNAc
Outline: as §1

Kdn(a2-3)Gal(b1-4)Glc = molecular target: Kdn(a2-3)Gal(b1-4)Glc
Outline: as §1

Kdn(a2-3)Gal(b1-4)GlcNAc = molecular target: Kdn(a2-3)Gal(b1-4)GlcNAc
Outline: as §1

[17] = molecular target: Kdn(a2-3)Gal(b1-4)[Fuc(a1-3)]GlcNAc
Outline: as §1

Kdn(a2-6)Gal(b1-4)GlcNAc = molecular target: Kdn(a2-6)Gal(b1-4)GlcNAc
Outline: as §1

[18] = molecular target: Man(a1-2)Man(a1-2)Man(a1-3)Man
Outline: as §1

[19] = molecular target: Man(a1-2)Man(a1-2)Man(a1-6)[Man(a1-3)]Man
Outline: as §1

Man(a1-2)Man(a1-3)Man = molecular target: Man(a1-2)Man(a1-3)Man
Outline: as §1

[20] = molecular target: Man(a1-2)Man(a1-3)[Man(a1-2)Man(a1-6)]Man
Outline: as §1

[21] = molecular target: Man(a1-2)Man(a1-3)[Man(a1-2)Man(a1-6)]Man(a1-6)[Man(a1-2)Man(a1-2)Man(a1-3)]Man
Outline: as §1

[22] = molecular target: Man(a1-2)Man(a1-3)[Man(a1-2)Man(a1-6)]Man(a1-6)[Man(a1-2)Man(a1-2)Man(a1-3)]Man(b1-4)GlcNAc(b1-4)GlcNAc
Outline: as §1

[23] = molecular target: Man(a1-2)Man(a1-3)[Man(a1-6)]Man(a1-6)[Man(a1-2)Man(a1-3)]Man(b1-4)GlcNAc(b1-4)GlcNAc
Outline: as §1

[24] = molecular target: Man(a1-2)Man(a1-6)[Man(a1-3)]Man(a1-6)[Man(a1-2)Man(a1-2)Man(a1-3)]Man
Outline: as §1

[25] = molecular target: Man(a1-2)Man(a1-6)[Man(a1-3)]Man(a1-6)[Man(a1-2)Man(a1-2)Man(a1-3)]Man(b1-4)GlcNAc(b1-4)GlcNAc
Outline: as §1

Man(a1-3)[Man(a1-6)]Man = molecular target: Man(a1-3)[Man(a1-6)]Man
Outline: as §1

[26] = molecular target: Man(a1-3)[Man(a1-6)]Man(a1-6)[Man(a1-2)Man(a1-3)]Man(b1-4)GlcNAc(b1-4)GlcNAc
Outline: as §1

B1: PX9961C-bth-497-22-497 (Bacteroides thetaiotaomicron) (protein)
chain: DWLDLNTTSSVETGQAIVTLDDAQIALNGIYRLASGHSYYGDNYWYYGDCRAADVQARITKGDGKRVSPYYEYNVLASDNLNIVLPWNTVYKVIRQTNNLIQKIESGSIQSSDTKELNRIKSEALVMRGLSLFNLTRLFGMPYTNDKGASLGVPIETSPSDPTHKPSRSTVAQCYEQVVSDMSNALSGLRQETSNGYINYWAAQALLSRVYLNMGEYQKAYDAATDVIKNNGGRYQLYSYEEYPNVWGQDFQSESLFELYITLSEPSGGTGGEGAPMVYANEATVDWNNLILSEDFLNLLNEDPKDVRHCLTKESVIENNTGLPAAAMHEKVYLAKFPGKTGDDPKTNNICIIRLSEVYLNAAEAGLKKGTDIEEAQGYLNDIISRRTTDTSQQVSTETFTLDRILKERRKELVGEGEVFYDYLRNGLAIERKGSWHLETLKASNAQKIEATDLRIALPIPQSEIDANPNIQQNPR
Question: What does the source list for B1?
Answer: glycan array binding signal (z-score) [1]: 0.131; glycan array binding signal (z-score) [2]: -0.166; glycan array binding signal (z-score) [3]: -0.634; glycan array binding signal (z-score) [4]: 1.56; glycan array binding signal (z-score) [5]: -0.702; glycan array binding signal (z-score) [6]: -0.862; glycan array binding signal (z-score) (GlcNAc(b1-3)GalNAc): -0.378; glycan array binding signal (z-score) (GlcNAc(b1-3)Man): -0.613; glycan array binding signal (z-score) [7]: -0.445; glycan array binding signal (z-score) [8]: 0.384; glycan array binding signal (z-score) [9]: -0.214; glycan array binding signal (z-score) [10]: -0.123; glycan array binding signal (z-score) (GlcNAc(b1-4)GlcNAc): -0.2; glycan array binding signal (z-score) [11]: -0.285; glycan array binding signal (z-score) [12]: -0.492; glycan array binding signal (z-score) [13]: -0.255; glycan array binding signal (z-score) [14]: -0.651; glycan array binding signal (z-score) [15]: 0.315; glycan array binding signal (z-score) (GlcNAc(b1-6)GalNAc): -0.304; glycan array binding signal (z-score) [16]: -0.218; glycan array binding signal (z-score) (Kdn(a2-3)Gal(b1-3)GalNAc): 0.499; glycan array binding signal (z-score) (Kdn(a2-3)Gal(b1-3)GlcNAc): -0.812; glycan array binding signal (z-score) (Kdn(a2-3)Gal(b1-4)Glc): 0.416; glycan array binding signal (z-score) (Kdn(a2-3)Gal(b1-4)GlcNAc): -0.456; glycan array binding signal (z-score) [17]: -0.455; glycan array binding signal (z-score) (Kdn(a2-6)Gal(b1-4)GlcNAc): -0.057; glycan array binding signal (z-score) [18]: -0.329; glycan array binding signal (z-score) [19]: -0.23; glycan array binding signal (z-score) (Man(a1-2)Man(a1-3)Man): 0.277; glycan array binding signal (z-score) [20]: 0.069; glycan array binding signal (z-score) [21]: 0.29; glycan array binding signal (z-score) [22]: -0.823; glycan array binding signal (z-score) [23]: -0.492; glycan array binding signal (z-score) [24]: 0.025; glycan array binding signal (z-score) [25]: 0.071; glycan array binding signal (z-score) (Man(a1-3)[Man(a1-6)]Man): -0.06; glycan array binding signal (z-score) [26]: -0.505
